# Test results as given in the supplement of paper PMC8728848.
# This is one part of the list.
# B1: Gal 8 (Homo sapiens), O00214 (protein)
# chain: MMLSLNNLQNIIYNPVIPFVGTIPDQLDPGTLIVIRGHVPSDADRFQVDLQNGSSMKPRADVAFHFNPRFKRAGCIVCNTLINEKWGREEITYDTPFKREKSFEIVIMVKDKFQVAVNGKHTLLYGHRIGPEKIDTLGIYGKVNIHSIGFSFSSDLQSTQASSLELTEISRENVPKSGTPQLPSNRGGDISKIAPRTVYTKSKDSTVNHTLTCTKIPPMNYVSKRLPFAARLNTPMGPGRTVVVKGEVNANAKSFNVDLLAGKSKDIALHLNPRLNIKAFVRNSFLQESWGEEERNITSFPFSPGMYFEMIIYCDVREFKVAVNGVHSLEYKHRFKELSSIDTLEINGDIHLLEVRSW
# Legend:
# Assay in all cases: glycan array binding signal (z-score within array); higher = stronger binding
# Details in all cases: glycan notation: IUPAC condensed, linker removed
# [1] = target: Fuc(a1-2)Gal
# Outline: (§1)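 Glycan array data came from 3228 arrays in the Consortium for Functional Glycomics database, and only arrays with an available protein sequence were kept. Glycan names were put into IUPAC-condensed notation, and columns mapping to the same glycan were averaged. The binding signal is a within-array Z-score, averaged across arrays of one protein sequence run at different concentrations or buffers and across linkers. A negative Z-score can be read as non-binding.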
# [2] = target: Fuc(a1-2)Gal(b1-3)GalNAc
# Outline: as §1
# [3] = target: Fuc(a1-2)Gal(b1-3)GalNAc(b1-3)Gal
# Outline: as §1
# [4] = target: Fuc(a1-2)Gal(b1-3)GalNAc(b1-3)Gal(a1-4)Gal(b1-4)Glc
# Outline: as §1
# [5] = target: Fuc(a1-2)Gal(b1-3)GalNAc(b1-4)[Neu5Ac(a2-3)]Gal(b1-4)Glc
# Outline: as §1
# [6] = target: Fuc(a1-2)Gal(b1-3)GlcNAc
# Outline: as §1
# [7] = target: Fuc(a1-2)Gal(b1-3)GlcNAc(b1-3)Gal(b1-4)Glc
# Outline: as §1
# [8] = target: Fuc(a1-2)Gal(b1-3)[Fuc(a1-4)]GlcNAc
# Outline: as §1
# [9] = target: Fuc(a1-2)Gal(b1-4)Glc
# Outline: as §1
# [10] = target: Fuc(a1-2)Gal(b1-4)Glc6S
# Outline: as §1
# [11] = target: Fuc(a1-2)Gal(b1-4)GlcNAc
# Outline: as §1
# [12] = target: Fuc(a1-2)Gal(b1-4)GlcNAc(b1-3)Gal(b1-4)GlcNAc
# Outline: as §1
# [13] = target: Fuc(a1-2)Gal(b1-4)GlcNAc(b1-3)Gal(b1-4)GlcNAc(b1-3)Gal(b1-4)GlcNAc
# Outline: as §1
# [14] = target: Fuc(a1-2)Gal(b1-4)GlcNAc6S
# Outline: as §1
# [15] = target: Fuc(a1-2)Gal(b1-4)[Fuc(a1-3)]GlcNAc
# Outline: as §1
# [16] = target: Fuc(a1-2)Gal(b1-4)[Fuc(a1-3)]GlcNAc(b1-3)Gal(b1-4)[Fuc(a1-3)]GlcNAc
# Outline: as §1
# [17] = target: Fuc(a1-2)Gal(b1-4)[Fuc(a1-3)]GlcNAc(b1-3)Gal(b1-4)[Fuc(a1-3)]GlcNAc(b1-3)Gal(b1-4)[Fuc(a1-3)]GlcNAc
# Outline: as §1
# [18] = target: Fuc(a1-2)Gal6S(b1-4)Glc
# Outline: as §1
# [19] = target: Fuc(a1-2)Gal6S(b1-4)Glc6S
# Outline: as §1
# [20] = target: Fuc(a1-2)Gal6S(b1-4)GlcNAc
# Outline: as §1
# [21] = target: Fuc(a1-2)[Gal(a1-3)]Gal
# Outline: as §1
# [22] = target: Fuc(a1-2)[Gal(a1-3)]Gal(b1-3)GlcNAc
# Outline: as §1
# [23] = target: Fuc(a1-2)[Gal(a1-3)]Gal(b1-4)Glc
# Outline: as §1
# [24] = target: Fuc(a1-2)[Gal(a1-3)]Gal(b1-4)GlcNAc
# Outline: as §1
# [25] = target: Fuc(a1-2)[Gal(a1-3)]Gal(b1-4)[Fuc(a1-3)]GlcNAc
# Outline: as §1
# [26] = target: Fuc(a1-2)[Gal(a1-4)]Gal(b1-4)GlcNAc
# Outline: as §1
# [27] = target: Fuc(a1-2)[GalNAc(a1-3)]Gal
# Outline: as §1
# [28] = target: Fuc(a1-2)[GalNAc(a1-3)]Gal(b1-3)GlcNAc
# Outline: as §1
# [29] = target: Fuc(a1-2)[GalNAc(a1-3)]Gal(b1-4)Glc
# Outline: as §1
# [30] = target: Fuc(a1-2)[GalNAc(a1-3)]Gal(b1-4)GlcNAc
# Outline: as §1
# [31] = target: Fuc(a1-2)[GalNAc(a1-3)]Gal(b1-4)[Fuc(a1-3)]GlcNAc
# Outline: as §1
# [32] = target: Fuc(a1-2)[GalNAc(a1-4)]Gal(b1-4)GlcNAc
# Outline: as §1
# [33] = target: Fuc(a1-2)[GalNAc(b1-3)]Gal
# Outline: as §1
# [34] = target: Fuc(a1-3)GlcNAc
# Outline: as §1
# [35] = target: Fuc(a1-3)[Gal(b1-4)]Glc6S
# Outline: as §1
# [36] = target: Fuc(a1-3)[Gal(b1-4)]GlcNAc
# Outline: as §1
# [37] = target: Fuc(a1-3)[Gal(b1-4)]GlcNAc(b1-2)Man(a1-3)[Fuc(a1-3)[Gal(b1-4)]GlcNAc(b1-2)Man(a1-6)]Man(b1-4)GlcNAc(b1-4)GlcNAc
# Outline: as §1
# [38] = target: Fuc(a1-3)[Gal(b1-4)]GlcNAc(b1-2)Man(a1-6)[Gal(b1-4)GlcNAc(b1-2)Man(a1-3)]Man(b1-4)GlcNAc(b1-4)GlcNAc
# Outline: as §1
# [39] = target: Fuc(a1-3)[Gal(b1-4)]GlcNAc(b1-3)Gal(b1-3)[Fuc(a1-4)]GlcNAc
# Outline: as §1
# [40] = target: Fuc(a1-3)[Gal(b1-4)]GlcNAc(b1-4)Gal(b1-4)[Fuc(a1-3)]GlcNAc
# Outline: as §1
# [41] = target: Fuc(a1-3)[Gal(b1-4)]GlcNAc(b1-4)Gal(b1-4)[Fuc(a1-3)]GlcNAc(b1-4)Gal(b1-4)[Fuc(a1-3)]GlcNAc
# Outline: as §1
# [42] = target: Fuc(a1-3)[Gal(b1-4)]GlcNAc6S
# Outline: as §1
# [43] = target: Fuc(a1-3)[Gal3S(b1-4)]Glc6S
# Outline: as §1
# [44] = target: Fuc(a1-3)[Gal3S(b1-4)]GlcNAc
# Outline: as §1
# [45] = target: Fuc(a1-3)[Gal3S(b1-4)]GlcNAc6S
# Outline: as §1
# [46] = target: Fuc(a1-3)[GalNAc(b1-4)]GlcNAc
# Outline: as §1
# [47] = target: Fuc(a1-4)GlcNAc
# Outline: as §1
# [48] = target: Fuc(b1-3)GlcNAc
# Outline: as §1
# [49] = target: Gal(a1-2)Gal
# Outline: as §1
# [50] = target: Gal(a1-3)Gal
# Outline: as §1
# [51] = target: Gal(a1-3)Gal(b1-3)GlcNAc
# Outline: as §1
# [52] = target: Gal(a1-3)Gal(b1-4)Glc
# Outline: as §1
# [53] = target: Gal(a1-3)Gal(b1-4)GlcNAc
# Outline: as §1
# [54] = target: Gal(a1-3)Gal(b1-4)[Fuc(a1-3)]GlcNAc
# Outline: as §1
# [55] = target: Gal(a1-3)GalNAc
# Outline: as §1
# [56] = target: Gal(a1-3)[Gal(a1-4)]Gal(b1-4)GlcNAc
# Outline: as §1
# [57] = target: Gal(a1-4)Gal(b1-4)Glc
# Outline: as §1
# [58] = target: Gal(a1-4)Gal(b1-4)GlcNAc
# Outline: as §1
# [59] = target: Gal(a1-4)GlcNAc
# Outline: as §1
# [60] = target: Gal(a1-6)Glc
# Outline: as §1
binder,measurement,setting,value
B1,glycan array binding signal (z-score),[1],-0.412
same,glycan array binding signal (z-score),[2],0.128
same,glycan array binding signal (z-score),[3],-0.432
same,glycan array binding signal (z-score),[4],-0.141
same,glycan array binding signal (z-score),[5],-0.168
same,glycan array binding signal (z-score),[6],1.36
same,glycan array binding signal (z-score),[7],1.29
same,glycan array binding signal (z-score),[8],-0.434
same,glycan array binding signal (z-score),[9],0.114
same,glycan array binding signal (z-score),[10],0.286
same,glycan array binding signal (z-score),[11],-0.016
same,glycan array binding signal (z-score),[12],1.13
same,glycan array binding signal (z-score),[13],1.22
same,glycan array binding signal (z-score),[14],0.154
same,glycan array binding signal (z-score),[15],-0.408
same,glycan array binding signal (z-score),[16],-0.431
same,glycan array binding signal (z-score),[17],-0.386
same,glycan array binding signal (z-score),[18],-0.427
same,glycan array binding signal (z-score),[19],-0.451
same,glycan array binding signal (z-score),[20],-0.438
same,glycan array binding signal (z-score),[21],-0.409
same,glycan array binding signal (z-score),[22],3.58
same,glycan array binding signal (z-score),[23],5.02
same,glycan array binding signal (z-score),[24],4.8
same,glycan array binding signal (z-score),[25],-0.447
same,glycan array binding signal (z-score),[26],-0.452
same,glycan array binding signal (z-score),[27],-0.428
same,glycan array binding signal (z-score),[28],1.9
same,glycan array binding signal (z-score),[29],4.22
same,glycan array binding signal (z-score),[30],2.24
same,glycan array binding signal (z-score),[31],-0.41
same,glycan array binding signal (z-score),[32],-0.412
same,glycan array binding signal (z-score),[33],0.118
same,glycan array binding signal (z-score),[34],-0.382
same,glycan array binding signal (z-score),[35],-0.374
same,glycan array binding signal (z-score),[36],-0.437
same,glycan array binding signal (z-score),[37],-0.433
same,glycan array binding signal (z-score),[38],-0.195
same,glycan array binding signal (z-score),[39],-0.442
same,glycan array binding signal (z-score),[40],-0.416
same,glycan array binding signal (z-score),[41],-0.006
same,glycan array binding signal (z-score),[42],-0.432
same,glycan array binding signal (z-score),[43],-0.295
same,glycan array binding signal (z-score),[44],-0.441
same,glycan array binding signal (z-score),[45],-0.23
same,glycan array binding signal (z-score),[46],-0.438
same,glycan array binding signal (z-score),[47],-0.4
same,glycan array binding signal (z-score),[48],-0.433
same,glycan array binding signal (z-score),[49],0.812
same,glycan array binding signal (z-score),[50],-0.43
same,glycan array binding signal (z-score),[51],1.33
same,glycan array binding signal (z-score),[52],1.17
same,glycan array binding signal (z-score),[53],0.236
same,glycan array binding signal (z-score),[54],-0.439
same,glycan array binding signal (z-score),[55],-0.426
same,glycan array binding signal (z-score),[56],-0.445
same,glycan array binding signal (z-score),[57],-0.426
same,glycan array binding signal (z-score),[58],-0.422
same,glycan array binding signal (z-score),[59],-0.44
same,glycan array binding signal (z-score),[60],-0.443
